# Test results as given in the RNAGym collection of RNA variant scans (doi:10.1093/nar/gkz1192).
# Read counts are not given, so values of variants with three or more changes are uncertain.
# B1: CPEB3 Ribozyme (parent)
# chain: UAACAGGGGGCCACAGCAGAAGCGUUCACGUCGCAGCCCCUGUCAGAUUCUGGUGAAUCUGCGAAUUCUGCUGUAUAUCUC
# Variants of: B1
# Experiment: self-cleavage, relative activity (ratio to wild type); higher = more cleavage; in vitro, sequencing
# Outline: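 For each CPEB3 ribozyme variant, relative activity is its cleaved/total read fraction divided by the unmutated ribozyme's. Barcoded error-prone PCR libraries were transcribed by T7 RNA polymerase (5 hours, 37°C) and held in DNase I for 15 min before an EDTA stop, with cleavage occurring throughout. Template-switching reverse transcription and Illumina sequencing were used to read the RNAs. A 5-read minimum applied, and results are the mean of three batches.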
row,Variant,self-cleavage
1,A15U U31C U41C U43A A65G U78C,0.08
2,A15U U31C U43C U74A,0.23
3,A15U U31C U51C U72A,0.25
4,A15U U31C U51G A57G C59U,0.08
5,A15U U31C U54C,0.48
6,A15U U41A U51C,0.18
7,A15U U41A U76C A77G,0.18
8,A15U U41C A45U U78C,0.2
9,A15U U43A A45C C68A U69C,0.06
10,A15U U43A A47G A57G C62A U69C U76C,0.2
11,A15U U43A A57G U58C,0.18
12,A15U U43C A45G,0.21
13,A15U U43C A65G,0.26
14,A15U U43C U58C U67C,0.08
15,A15U U43C U60C G70C U76C,0.08
16,A15U U43C U67C,0.16
17,A15U U43C U74C,0.26
18,A15U U43G U58A C59U C79A,0.03
19,A15U U48A U60C,0.09
20,A15U U48C A56G U58A U60C U74A U80A,0.09
21,A15U U48C U51C U72C,0.25

row,Variant,self-cleavage
1,A15U U48C U60A,0.17
2,A15U U48C U80C,0.29
3,A15U U49C C50U U54A U60C U80C,0.08
4,A15U U49C U51C,0.16
5,A15U U49C U76C A77C,0.17
6,A15U U51A A64U U74A,0.27
7,A15U U51A U69A,0.43
8,A15U U51C A56C U72C,0.33
9,A15U U51C A56G,0.46
10,A15U U51C U58A G73A,0.1
11,A15U U54A U58C U78C,0.52
12,A15U U54C A64G,0.27
13,A15U U54C A77U U80C,0.95
14,A15U U54C U76A,0.96
15,A15U U54C U78A,0.61
16,A15U U60A U66A,0.18
17,A15U U60G U72C,0.16
18,A15U U66A U67A,0.17
19,A15U U67A U80A,0.05
20,A15U U74G A75G,0.87
21,G16A A18U U26C U31C,0.14

row,Variant,self-cleavage
1,G16A A20G C40U,0.17
2,G16A A20G G30A U31A A64G,0.06
3,G16A A20G U43C,0.26
4,G16A A20U A21G G36A A47G U51C,0.19
5,G16A A20U A28U G42U,0.11
6,G16A A21G A35G A56U,0.17
7,G16A A21G A47G U54C G63U,0.08
8,G16A A21G U25C C81U,1.32
9,G16A A28G C32U A35U C38U,0.06
10,G16A A28U U43A,0.19
11,G16A A35G G46A G70C A75G,0.18
12,G16A A35G U66C,0.25
13,G16A A35U C68G,0.12
14,G16A A45G G46A U51A A56G A57U A64G,0.06
15,G16A A45G U49C U69C,0.05
16,G16A A56U U58C U60G U72A U78C,0.06
17,G16A C23A U80C,0.42
18,G16A C34U U69C,0.1
19,G16A C50U A56U U60C,0.08
20,G16A G30A U43C A45U A57G U74C,0.16
21,G16A G36U U60C,0.05

row,Variant,self-cleavage
1,G16A G46U A57G,0.33
2,G16A U25A A28U U41C U49C C59U U66C,0.03
3,G16A U25A U26C G33A,0.06
4,G16A U25C U51A U74C,0.24
5,G16A U26A G33C U58C,0.14
6,G16A U31A A77G,0.09
7,G16A U31A U51A A56G U74C,0.36
8,G16A U48C A56G,0.13
9,G16A U48C A64G,0.18
10,G16A U67C A77G,0.06
11,G16C A21G U80C,0.23
12,G16C A28G U31C U60C,0.18
13,G16C A75U U78A,0.19
14,G16C C29A U31A G52U,0.23
15,G16C C40U U41C U60A,0.08
16,G16C G24C U43A,0.05
17,G16C U25A G53U A75C U76C,0.46
18,G16C U25C U31C U41C A65U A77U,0.05
19,G16C U41A A45G U69C U80G,0.16
20,G16C U41A U69A,0.13
